According to PMC4336329 (PLoS ONE, 2015):
The campaign covered roughly 310,000 compounds. About 2,200 (0.71%) showed an effect of 50% or more. The effect is printed as a negative number. The list shows a part of the results.

target: human ether-à-go-go-related gene (hERG) potassium channel (human, UniProt Q12809); test: primary screen, population patch clamp on CHO cells stably expressing hERG
Sequence (Q12809 whole entry, looked up): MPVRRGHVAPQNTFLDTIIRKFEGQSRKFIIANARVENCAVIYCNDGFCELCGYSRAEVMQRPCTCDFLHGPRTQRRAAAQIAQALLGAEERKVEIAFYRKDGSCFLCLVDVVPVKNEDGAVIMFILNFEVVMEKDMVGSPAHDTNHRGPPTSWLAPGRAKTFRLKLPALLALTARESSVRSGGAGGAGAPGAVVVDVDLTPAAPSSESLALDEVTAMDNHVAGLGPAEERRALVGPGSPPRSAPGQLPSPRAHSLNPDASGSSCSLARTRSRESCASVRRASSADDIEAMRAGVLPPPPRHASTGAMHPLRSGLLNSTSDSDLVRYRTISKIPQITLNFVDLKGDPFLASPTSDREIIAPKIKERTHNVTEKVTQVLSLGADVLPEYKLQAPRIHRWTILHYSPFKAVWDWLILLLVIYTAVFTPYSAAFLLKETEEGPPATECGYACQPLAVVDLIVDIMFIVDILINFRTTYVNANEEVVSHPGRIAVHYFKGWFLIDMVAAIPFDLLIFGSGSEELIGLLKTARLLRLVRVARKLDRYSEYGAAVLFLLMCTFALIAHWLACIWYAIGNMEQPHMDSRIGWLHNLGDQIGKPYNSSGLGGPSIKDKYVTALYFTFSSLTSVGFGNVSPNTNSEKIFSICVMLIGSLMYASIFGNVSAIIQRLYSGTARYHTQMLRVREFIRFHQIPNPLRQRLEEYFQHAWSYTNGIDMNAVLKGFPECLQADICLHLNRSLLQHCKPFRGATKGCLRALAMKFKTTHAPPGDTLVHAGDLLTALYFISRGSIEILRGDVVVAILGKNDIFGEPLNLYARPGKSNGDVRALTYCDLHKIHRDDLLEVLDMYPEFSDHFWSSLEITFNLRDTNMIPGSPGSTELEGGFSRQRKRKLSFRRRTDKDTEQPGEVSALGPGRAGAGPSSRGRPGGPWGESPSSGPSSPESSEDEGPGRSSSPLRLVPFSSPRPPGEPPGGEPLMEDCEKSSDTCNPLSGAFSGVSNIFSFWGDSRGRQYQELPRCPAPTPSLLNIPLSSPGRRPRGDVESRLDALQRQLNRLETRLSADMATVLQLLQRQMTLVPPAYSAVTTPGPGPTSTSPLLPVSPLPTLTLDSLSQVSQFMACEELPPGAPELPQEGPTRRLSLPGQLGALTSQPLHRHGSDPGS

| Compound | hERG current change (%, negative = inhibition) at 1uM |
| --- | --- |
| Cc1csc(NC(=O)CCSCCc2ccccn2)n1 | 0.214% |
| Cc1ccc(S(=O)(=O)NCC(=O)N(CC(=O)NC(C)(C)C)Cc2cccs2)cc1 | 7.98% |
| O=C(CN1CCN(c2ccccn2)CC1)Nc1cc(C(F)(F)F)ccc1Cl | 5.73% |
| O=C1C2CC=CCC2C(=O)N1CNc1ccccc1 (stereo not shown) | 12.3% |
| CCc1cccc(NC(=S)N(CCOC)C2CCN(C(C)=O)CC2)c1 | 7.82% |
| Cc1ccc(-c2cnn(-c3ccccc3)c2N)cc1 | 8.75% |
| C=CCNC(=O)c1onc(CSc2ccccc2C)c1C(=O)O | -10.5% |
| CCOC(=O)C1=C(N)Oc2cc(O)ccc2C1c1ccccc1 (stereo not shown) | 9.31% |
| Cc1nc2ccc(NS(=O)(=O)c3ccccc3Cl)cc2s1 | 7.78% |
| COc1ccc(N2CCN(C(=O)COc3cccc4ccccc34)CC2)cc1 | -15.6% |
| OC12CCCCC1C(c1ccccc1)NCC2 (stereo not shown) | 12% |
| COc1ccc(/C=N/Nc2nc(Nc3ccccc3)nc(N3CCCC3)n2)cc1[N+](=O)[O-] | 6.26% |
| Cn1nc(C2CC2)cc1NC(=O)CC(CC(=O)O)c1ccccc1 (stereo not shown) | 14.1% |
| COC(=O)c1[nH]c2ccc(C)cc2c1NC(=O)CN1CCCc2ccccc21 | 9.56% |
| CN(CC(=O)Nc1cccc(F)c1)C(=O)c1ccc(-c2cccc(C(F)(F)F)c2)o1 | 10.6% |
| Cc1ccc(Cl)cc1NC(=O)CCNC(=O)N1CC(=O)Nc2ccccc21 | 15.5% |
| COCCN1C(=O)C(=O)/C(=C(/O)c2ccc(S(=O)(=O)N3CCOCC3)cc2)C1c1ccc(O)c(OC)c1 (stereo not shown) | 15.2% |
| c1ccc(Cn2nnc3cnccc32)cc1 | 5.52% |
| C/C(=N\NC(=O)c1ccc(NS(=O)(=O)c2cccs2)cc1)c1ccc(Cl)cc1 | 1.82% |
| O=C(c1ccccc1)c1c[nH]cc1-c1ccccc1 | 7.33% |
| Cc1ccc(C2=NS(=O)(=O)N(C)C(C(=O)NC(C)c3ccccc3)=C2)cc1 (stereo not shown) | 8.91% |
| CC(=O)c1cccc(NC(=O)CNC(=O)c2sc3ccccc3c2Cl)c1 | 9% |
| CCOC(=O)NN1C(=O)c2ccccc2NC1c1ccccc1O (stereo not shown) | 15% |
| Cc1c(C=O)c2ccccc2n1CC(=O)O | 19.8% |
| CCCCC(=O)Nc1ccc(C(=O)NCCc2ccccc2)cc1 | -0.887% |
